Nine variants from the supplement of paper PMC12217912 can be followed below.

The list shows a part of the results. The full chains were built here from the parent and the listed change. Inactive controls read about 0.05.

B1: TEV protease; numbered along this chain (parent)
chain: MGESLFKGPRDYNPISSSICHLTNESDGHTTSLYGIGFGPFIITNKHLFRRNNGTLVVQSLHGVFKVKDTTTLQQHLVDGRDMIIIRMPKDFPPFPQKLKFREPQREERICLVTTNFQTKSMSSMVSDTSCTFPSGDGIFWKHWIQTKDGQCGSPLVSTRDGFIVGIHSASNFTNTNNYFTSVPKNFMELLTNQEAQQWVSGWRLNADSVLWGGHKVFMVKPEEPFQPVKEATQL

Variants of B1 are the subject of this experiment. Description: raw area under fraction-flipped curve 0-4 h after induction (AUC4h, not background-subtracted), DNA-recorder readout of cleavage of the substrate (dimensionless); higher = more cleavage of the substrate by the protease variant. The note with it: temperature: 34 °C; time window: 0-4 h after rhamnose induction.
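Also: Bxb1 expression induced with 0.2% (w/v) L-rhamnose at OD600 near 0.5, cultures sampled hourly, flipped fraction per protease–substrate barcode pair counted by paired-end Illumina sequencing.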

Regarding MGESLFKGPRDYNPISSSICKLTNESDGHTTSLYGIGFGPFIITNKHLFRRNNGTLVVQSLHGVFKVKDTTTLQQHLVDGRDMIIIRMPKDFPPFPQKLKFREPQREERICLVTTNFQTKSMSSMVSDTSCTFPSGDGIFWKHWIQTKDGQCGSPLVSTRDGFIVGIHSASNFTNTNNYFTSVPKNFMELLTNQEAQQWVSGWRLNADSVLWGGHKVFMVKPEEPFQPVKEATQL [H21K], the “area with substrate ENLYDQS” value was 0.0552, the “area with substrate ENLYEQS” value is 0.0734, the “area with substrate ENLYGQS” value came to 0.0664 and the “area with substrate ENLYHQS” value turned out to be 0.0644. Besides, the “area with substrate ENLYIQS” value was 0.0984, the “area with substrate ENLYLQS” value is 0.0902, the “area with substrate ENLYMQS” value is 0.0818 and the “area with substrate ENLYNQS” value came to 0.0666. Further, the “area with substrate ENLYPQS” value was 0.0726, the “area with substrate ENLYRQS” value was 0.0562, the “area with substrate ENLYSQS” value amounted to 0.0552 and the “area with substrate ENLYVQS” value was 0.116. Also, the “area with substrate ENLYWQS” value turned out to be 0.0887 and the “area with substrate ENLYYQS” value turned out to be 0.0857.
In the case of MGESLFKGPRDYNPISSSICHLTNESDGHTTSQYGIGFGPFIITNKHLFRRNNGTLVVQSLHGVFKVKDTTTLQQHLVDGRDMIIIRMPKDFPPFPQKLKFREPQREERICLVTTNFQTKSMSSMVSDTSCTFPSGDGIFWKHWIQTKDGQCGSPLVSTRDGFIVGIHSASNFTNTNNYFTSVPKNFMELLTNQEAQQWVSGWRLNADSVLWGGHKVFMVKPEEPFQPVKEATQL [L33Q], the “area with substrate ENLYDQS” value was determined as 0.0636, the “area with substrate ENLYEQS” value was 0.065, the “area with substrate ENLYGQS” value turned out to be 0.0681 and the “area with substrate ENLYHQS” value worked out at 0.0667. Moreover, the “area with substrate ENLYIQS” value was determined as 0.0716, the “area with substrate ENLYKQS” value was 0.0544, the “area with substrate ENLYLQS” value stood at 0.064 and the “area with substrate ENLYMQS” value was found to be 0.0752. In addition, the “area with substrate ENLYNQS” value came to 0.074, the “area with substrate ENLYPQS” value was 0.0603, the “area with substrate ENLYQQS” value was found to be 0.0691 and the “area with substrate ENLYRQS” value came to 0.0617. The “area with substrate ENLYSQS” value worked out at 0.0659, the “area with substrate ENLYVQS” value came out at 0.0921, the “area with substrate ENLYWQS” value was determined as 0.0539 and the “area with substrate ENLYYQS” value stood at 0.0581.
MGESLFKGPRDYNPISSSICHLTNESDGHTTSLYGIGFGPFIITNKHLFRMNNGTLVVQSLHGVFKVKDTTTLQQHLVDGRDMIIIRMPKDFPPFPQKLKFREPQREERICLVTTNFQTKSMSSMVSDTSCTFPSGDGIFWKHWIQTKDGQCGSPLVSTRDGFIVGIHSASNFTNTNNYFTSVPKNFMELLTNQEAQQWVSGWRLNADSVLWGGHKVFMVKPEEPFQPVKEATQL [R51M]: the “area with substrate ENLYDQS” value was determined as 0.0587, the “area with substrate ENLYEQS” value came to 0.0574, the “area with substrate ENLYHQS” value is 0.0717 and the “area with substrate ENLYKQS” value came to 0.0556. Besides, the “area with substrate ENLYPQS” value came out at 0.0758, the “area with substrate ENLYQQS” value was 0.0885, the “area with substrate ENLYSQS” value is 0.0728 and the “area with substrate ENLYTQS” value was determined as 0.0859. The “area with substrate ENLYVQS” value came out at 0.114.
Regarding MGESLFKGPRDYNPISSSICHLTNESDGHTTSLYGIGFGPFIITNKHLFRRNNGTLYVQSLHGVFKVKDTTTLQQHLVDGRDMIIIRMPKDFPPFPQKLKFREPQREERICLVTTNFQTKSMSSMVSDTSCTFPSGDGIFWKHWIQTKDGQCGSPLVSTRDGFIVGIHSASNFTNTNNYFTSVPKNFMELLTNQEAQQWVSGWRLNADSVLWGGHKVFMVKPEEPFQPVKEATQL [V57Y], the “area with substrate ENLYDQS” value was found to be 0.0552, the “area with substrate ENLYEQS” value was 0.0578, the “area with substrate ENLYGQS” value was found to be 0.08 and the “area with substrate ENLYHQS” value was found to be 0.0628. Further, the “area with substrate ENLYKQS” value came out at 0.066, the “area with substrate ENLYLQS” value is 0.0928, the “area with substrate ENLYMQS” value came out at 0.0352 and the “area with substrate ENLYNQS” value stood at 0.0631. For the same variant, the “area with substrate ENLYPQS” value was 0.0667, the “area with substrate ENLYQQS” value was determined as 0.0733, the “area with substrate ENLYRQS” value stood at 0.0628 and the “area with substrate ENLYSQS” value was 0.0785. In addition, the “area with substrate ENLYVQS” value came out at 0.145 and the “area with substrate ENLYYQS” value came to 0.0642.
Consider MGESLFKGPRDYNPISSSICHLTKESDGHTTSLYGIGFGPFIITNKHLFRRNNGTLVVQSLHGVFKVKDTTTLQQHLVDGRDMIIIRMPKDFPPFPQKLKFREPQREERICLVTTNFQTKSMSSMVSDTSCTFPSGDGIFWKHWIQTKDGQCGSPLVSTRDGFIVGIHSASNFTNTNNYFTSVPKNFMELLTNQEAQQWVSGWRLNADSVLWGGHKVFMVKPEEPFQPVKEATQL [N24K], for which the “area with substrate ENLYDQS” value worked out at 0.0682, the “area with substrate ENLYEQS” value was determined as 0.0402, the “area with substrate ENLYGQS” value came to 0.0683 and the “area with substrate ENLYHQS” value came out at 0.0582. Further, the “area with substrate ENLYIQS” value was 0.0932, the “area with substrate ENLYKQS” value was 0.0539, the “area with substrate ENLYNQS” value was 0.0629 and the “area with substrate ENLYPQS” value worked out at 0.0722. Besides, the “area with substrate ENLYQQS” value was found to be 0.0589, the “area with substrate ENLYRQS” value amounted to 0.066, the “area with substrate ENLYSQS” value was determined as 0.0664 and the “area with substrate ENLYVQS” value was 0.0202. Moreover, the “area with substrate ENLYWQS” value was 0.061 and the “area with substrate ENLYYQS” value was 0.0638.
Regarding MGESLFKGPRDYNPISSSICHLTNESDGHTTSLYGIGFGPFIITNKHLFRRNNGTLVVQSAHGVFKVKDTTTLQQHLVDGRDMIIIRMPKDFPPFPQKLKFREPQREERICLVTTNFQTKSMSSMVSDTSCTFPSGDGIFWKHWIQTKDGQCGSPLVSTRDGFIVGIHSASNFTNTNNYFTSVPKNFMELLTNQEAQQWVSGWRLNADSVLWGGHKVFMVKPEEPFQPVKEATQL [L61A], the “area with substrate ENLYDQS” value is 0.0729, the “area with substrate ENLYGQS” value is 0.0611, the “area with substrate ENLYHQS” value is 0.0797 and the “area with substrate ENLYIQS” value was found to be 0.133. Besides, the “area with substrate ENLYKQS” value turned out to be 0.0383, the “area with substrate ENLYNQS” value came to 0.0732, the “area with substrate ENLYPQS” value came to 0.0729 and the “area with substrate ENLYRQS” value stood at 0.0604. The “area with substrate ENLYSQS” value worked out at 0.0598, the “area with substrate ENLYVQS” value is 0.109 and the “area with substrate ENLYWQS” value came out at 0.0748.
With MGESLFKGPRDYNPISSSICHLTNESDHHTTSLYGIGFGPFIITNKHLFRRNNGTLVVQSLHGVFKVKDTTTLQQHLVDGRDMIIIRMPKDFPPFPQKLKFREPQREERICLVTTNFQTKSMSSMVSDTSCTFPSGDGIFWKHWIQTKDGQCGSPLVSTRDGFIVGIHSASNFTNTNNYFTSVPKNFMELLTNQEAQQWVSGWRLNADSVLWGGHKVFMVKPEEPFQPVKEATQL [G28H], the “area with substrate ENLYDQS” value was 0.051, the “area with substrate ENLYEQS” value amounted to 0.0654, the “area with substrate ENLYHQS” value is 0.0648 and the “area with substrate ENLYIQS” value is 0.0902. For the same variant, the “area with substrate ENLYKQS” value amounted to 0.0669, the “area with substrate ENLYLQS” value was found to be 0.0681, the “area with substrate ENLYMQS” value is 0.0715 and the “area with substrate ENLYNQS” value amounted to 0.0674. For the same variant, the “area with substrate ENLYPQS” value turned out to be 0.0477, the “area with substrate ENLYRQS” value was determined as 0.076, the “area with substrate ENLYSQS” value was 0.0682 and the “area with substrate ENLYTQS” value worked out at 0.0673. In addition, the “area with substrate ENLYVQS” value was determined as 0.0733 and the “area with substrate ENLYYQS” value came out at 0.0673.
As to MGESLFKGPRDYNPISSSICHLTNESDGQTTSLYGIGFGPFIITNKHLFRRNNGTLVVQSLHGVFKVKDTTTLQQHLVDGRDMIIIRMPKDFPPFPQKLKFREPQREERICLVTTNFQTKSMSSMVSDTSCTFPSGDGIFWKHWIQTKDGQCGSPLVSTRDGFIVGIHSASNFTNTNNYFTSVPKNFMELLTNQEAQQWVSGWRLNADSVLWGGHKVFMVKPEEPFQPVKEATQL [H29Q], the “area with substrate ENLYDQS” value was determined as 0.0638, the “area with substrate ENLYHQS” value worked out at 0.0759, the “area with substrate ENLYIQS” value was determined as 0.112 and the “area with substrate ENLYKQS” value came out at 0.0586. Also, the “area with substrate ENLYMQS” value worked out at 0.0816, the “area with substrate ENLYQQS” value is 0.0614, the “area with substrate ENLYRQS” value worked out at 0.0454 and the “area with substrate ENLYTQS” value was found to be 0.0796. Further, the “area with substrate ENLYWQS” value is 0.106 and the “area with substrate ENLYYQS” value amounted to 0.0673.
Take MGESLFKGPRDYNPISSSICHLTNESDGWTTSLYGIGFGPFIITNKHLFRRNNGTLVVQSLHGVFKVKDTTTLQQHLVDGRDMIIIRMPKDFPPFPQKLKFREPQREERICLVTTNFQTKSMSSMVSDTSCTFPSGDGIFWKHWIQTKDGQCGSPLVSTRDGFIVGIHSASNFTNTNNYFTSVPKNFMELLTNQEAQQWVSGWRLNADSVLWGGHKVFMVKPEEPFQPVKEATQL [H29W]: the “area with substrate ENLYDQS” value was 0.0587, the “area with substrate ENLYGQS” value turned out to be 0.0683, the “area with substrate ENLYHQS” value was 0.0722 and the “area with substrate ENLYKQS” value turned out to be 0.0481. Moreover, the “area with substrate ENLYMQS” value was found to be 0.0944, the “area with substrate ENLYNQS” value amounted to 0.0671, the “area with substrate ENLYPQS” value is 0.0711 and the “area with substrate ENLYSQS” value came to 0.0712. Also, the “area with substrate ENLYTQS” value stood at 0.0896, the “area with substrate ENLYVQS” value came out at 0.112 and the “area with substrate ENLYWQS” value amounted to 0.0752.
